Results as given in PubChem BioAssay (NCI).
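Values below derive from 48-hour exposures of cells grown in 96-well plates, with endpoints linearly interpolated between the two concentrations bracketing the appropriate inhibition level. GI50 = concentration required for 50% inhibition of growth. TGI is the concentration that stops growth completely.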

Test system: NCI-H322M lung
Test: growth of human tumour cells (NCI), 48 h

## C#C[C@]1(O)CC[C@H]2[C@@H]3CC=C4c5sc(Nc6cccc(Cl)n6)nc5CC[C@]4(C)[C@H]3CC[C@@]21C
  GI50: 2.12 µM
  TGI: 6.98 µM
